From PMC4973362
These are yes or no findings as the source states them, for the method shown. Binding seen in cells or lysates may run through a third protein. Some entries that bind do so weakly or less than the wild type. Where a sequence is shown, tags or fusion partners need not be part of it. Each block holds one binder with its values, some of them ahead of it.

Chains of the proteins cited; added tags and fusions are not shown.
UniProt Q96SW2: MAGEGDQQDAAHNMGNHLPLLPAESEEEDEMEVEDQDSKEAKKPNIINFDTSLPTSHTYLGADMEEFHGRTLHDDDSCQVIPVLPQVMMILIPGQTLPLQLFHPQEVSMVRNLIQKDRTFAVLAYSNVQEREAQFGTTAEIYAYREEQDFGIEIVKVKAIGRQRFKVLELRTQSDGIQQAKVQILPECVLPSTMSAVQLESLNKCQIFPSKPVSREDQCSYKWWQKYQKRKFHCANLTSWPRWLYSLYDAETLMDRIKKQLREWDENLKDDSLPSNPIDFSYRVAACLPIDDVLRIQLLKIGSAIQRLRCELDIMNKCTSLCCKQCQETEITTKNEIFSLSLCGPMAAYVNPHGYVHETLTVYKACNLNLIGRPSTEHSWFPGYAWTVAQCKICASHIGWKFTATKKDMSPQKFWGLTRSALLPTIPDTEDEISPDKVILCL

How the values were obtained:
[1] = molecular target: T1, Myc-TAK1 1-300 (UniProt O43318); test: co-IP; HEK293T cells co-transfected, extracted 38 h after transfection; immunoprecipitated with anti-Myc antibody, immunoblotted with anti-Flag or anti-Myc (Figure 3e-g)
T1 sequence: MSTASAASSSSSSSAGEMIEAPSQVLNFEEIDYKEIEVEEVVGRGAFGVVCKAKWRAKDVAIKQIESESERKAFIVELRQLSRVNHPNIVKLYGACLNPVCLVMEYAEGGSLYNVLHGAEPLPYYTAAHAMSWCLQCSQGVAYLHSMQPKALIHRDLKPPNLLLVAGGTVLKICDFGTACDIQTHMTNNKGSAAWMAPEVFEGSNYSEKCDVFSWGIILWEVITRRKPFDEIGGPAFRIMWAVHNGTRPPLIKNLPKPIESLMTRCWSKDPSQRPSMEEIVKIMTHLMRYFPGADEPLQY

[2] = molecular target: T2, Myc-TAK1 1-400 (UniProt O43318); test: as above
T2 sequence: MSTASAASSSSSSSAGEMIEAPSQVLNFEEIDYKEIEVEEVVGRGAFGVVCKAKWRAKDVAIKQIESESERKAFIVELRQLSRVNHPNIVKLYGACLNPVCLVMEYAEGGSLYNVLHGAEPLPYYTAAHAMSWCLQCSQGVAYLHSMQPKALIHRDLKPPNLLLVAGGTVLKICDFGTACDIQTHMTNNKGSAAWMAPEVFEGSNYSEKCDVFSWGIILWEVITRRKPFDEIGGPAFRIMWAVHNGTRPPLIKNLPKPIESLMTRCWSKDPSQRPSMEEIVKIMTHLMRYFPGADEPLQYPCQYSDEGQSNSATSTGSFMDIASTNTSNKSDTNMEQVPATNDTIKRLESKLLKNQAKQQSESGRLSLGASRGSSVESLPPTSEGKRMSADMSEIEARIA

[3] = molecular target: T3, Myc-TAK1 1-500 (UniProt O43318); test: as above
T3 sequence: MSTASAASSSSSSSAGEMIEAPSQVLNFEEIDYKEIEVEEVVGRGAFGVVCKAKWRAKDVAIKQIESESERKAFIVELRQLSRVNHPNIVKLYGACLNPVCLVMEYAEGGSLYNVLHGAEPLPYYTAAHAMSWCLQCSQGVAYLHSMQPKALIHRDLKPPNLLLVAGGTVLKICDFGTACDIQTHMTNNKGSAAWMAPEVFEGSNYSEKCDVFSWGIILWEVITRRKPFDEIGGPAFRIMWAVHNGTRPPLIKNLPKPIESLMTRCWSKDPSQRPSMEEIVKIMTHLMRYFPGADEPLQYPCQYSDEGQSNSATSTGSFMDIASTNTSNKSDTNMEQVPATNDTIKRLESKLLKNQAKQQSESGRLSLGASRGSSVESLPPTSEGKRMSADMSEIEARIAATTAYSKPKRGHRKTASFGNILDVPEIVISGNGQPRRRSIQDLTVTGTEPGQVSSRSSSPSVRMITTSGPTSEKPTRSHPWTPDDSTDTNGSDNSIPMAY

[4] = molecular target: T4, Myc-tagged TAK1 wild type (UniProt O43318); test: as above
T4 sequence: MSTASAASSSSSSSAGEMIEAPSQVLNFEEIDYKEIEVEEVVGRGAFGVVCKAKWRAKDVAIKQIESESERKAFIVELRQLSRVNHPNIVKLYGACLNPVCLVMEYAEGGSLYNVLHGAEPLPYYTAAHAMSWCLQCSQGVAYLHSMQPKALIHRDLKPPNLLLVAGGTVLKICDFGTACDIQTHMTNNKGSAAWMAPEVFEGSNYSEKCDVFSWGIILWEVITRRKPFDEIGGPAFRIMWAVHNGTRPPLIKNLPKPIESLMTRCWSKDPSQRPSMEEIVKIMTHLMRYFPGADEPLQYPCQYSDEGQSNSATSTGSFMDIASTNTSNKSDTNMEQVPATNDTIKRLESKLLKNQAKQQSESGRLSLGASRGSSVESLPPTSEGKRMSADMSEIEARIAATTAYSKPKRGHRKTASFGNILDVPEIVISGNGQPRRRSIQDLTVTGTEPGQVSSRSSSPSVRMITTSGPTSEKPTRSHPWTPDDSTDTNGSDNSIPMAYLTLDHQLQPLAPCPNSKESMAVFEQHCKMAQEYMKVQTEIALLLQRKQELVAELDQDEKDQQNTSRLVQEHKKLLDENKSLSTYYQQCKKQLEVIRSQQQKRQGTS

[5] = molecular target: T4, Myc-tagged TAK1 wild type; test: co-IP; HEK293T cells co-transfected with Myc-TAK1 and Flag-TAB1 or Flag-TAB2 in the presence or absence of different concentrations of HA-CRBN, extracted 38 h after transfection; immunoprecipitated with anti-Myc, immunoblotted with anti-Flag, anti-HA or anti-Myc (Figure 3i,j)
[6] = molecular target: HA-tagged CRBN (Cereblon) (UniProt Q96SW2); test: co-IP; HEK293T cells co-transfected, extracted 38 h after transfection; immunoprecipitated with anti-HA antibody, immunoblotted with anti-Flag or anti-HA (Figure 3c)

binding [1]: binds
binding [2]: binds
binding [3]: binds
binding [4]: binds
binding [5]: binds
B1: Flag-tagged TAB1 (TAK1-binding protein 1) (protein, UniProt Q15750 1-504)
chain: MAAQRRSLLQSEQQPSWTDDLPLCHLSGVGSASNRSYSADGKGTESHPPEDSWLKFRSENNCFLYGVFNGYDGNRVTNFVAQRLSAELLLGQLNAEHAEADVRRVLLQAFDVVERSFLESIDDALAEKASLQSQLPEGVPQHQLPPQYQKILERLKTLEREISGGAMAVVAVLLNNKLYVANVGTNRALLCKSTVDGLQVTQLNVDHTTENEDELFRLSQLGLDAGKIKQVGIICGQESTRRIGDYKVKYGYTDIDLLSAAKSKPIIAEPEIHGAQPLDGVTGFLVLMSEGLYKALEAAHGPGQANQEIAAMIDTEFAKQTSLDAVAQAVVDRVKRIHSDTFASGGERARFCPRHEDMTLLVRNFGYPLGEMSQPTPSPAPAAGGRVYPVSVPYSSAQSTSKTSVTLSLVMPSQGQMVNGAHSASTLDEATPTLTNQSPTLTLQSTNTHTQSSSSSSDGGLFRSRPAHSLPPGEDGRVEPYVDFAEFYRLWSVDHGEQSVVTAP

binding [6]: binds
B2: Flag-tagged TAK1 (transforming growth factor-beta-activated kinase 1) (protein, UniProt O43318 1-606)
chain: T4 sequence

binding [6]: no binding
binding [1]: no binding
binding [2]: no binding
binding [3]: no binding
binding [4]: binds
binding [5]: binds
B3: Flag-tagged TAB2 (TAK1-binding protein 2) (protein, UniProt Q9NYJ8 1-693)
chain: MAQGSHQIDFQVLHDLRQKFPEVPEVVVSRCMLQNNNNLDACCAVLSQESTRYLYGEGDLNFSDDSGISGLRNHMTSLNLDLQSQNIYHHGREGSRMNGSRTLTHSISDGQLQGGQSNSELFQQEPQTAPAQVPQGFNVFGMSSSSGASNSAPHLGFHLGSKGTSSLSQQTPRFNPIMVTLAPNIQTGRNTPTSLHIHGVPPPVLNSPQGNSIYIRPYITTPGGTTRQTQQHSGWVSQFNPMNPQQVYQPSQPGPWTTCPASNPLSHTSSQQPNQQGHQTSHVYMPISSPTTSQPPTIHSSGSSQSSAHSQYNIQNISTGPRKNQIEIKLEPPQRNNSSKLRSSGPRTSSTSSSVNSQTLNRNQPTVYIAASPPNTDELMSRSQPKVYISANAATGDEQVMRNQPTLFISTNSGASAASRNMSGQVSMGPAFIHHHPPKSRAIGNNSATSPRVVVTQPNTKYTFKITVSPNKPPAVSPGVVSPTFELTNLLNHPDHYVETENIQHLTDPTLAHVDRISETRKLSMGSDDAAYTQALLVHQKARMERLQRELEIQKKKLDKLKSEVNEMENNLTRRRLKRSNSISQIPSLEEMQQLRSCNRQLQIDIDCLTKEIDLFQARGPHFNPSAIHNFYDNIGFVGPVPPKPKDQRSIIKTPKTQDTEDDEGAQWNCTACTFLNHPALIRCEQCEMPRHF
